Reference: PubChem BioAssay AID485294 (National Center for Advancing Translational Sciences (NCATS), 2010)
Hit rate of the full screen: of about 370,000 compounds, about 150 (0.041%) were called active. The inconclusive results got no clear call from the source; some entries with a clear call stand among them for comparison. The call rests on the fitted dose curve; in most records, active means well fitted inhibition curve with a large enough effect; inconclusive means small, poorly fitted or top-dose-only effect; inactive means flat fitted curve, though single readings scatter. Potencies of inconclusive entries are left out as doubtful fits.

target: Beta-lactamase (Escherichia coli (strain K12)) (UniProt P00811); test: qHTS Inhibitors of AmpC Beta-Lactamase (assay with detergent); settings: AmpC hydrolysis of nitrocefin, absorbance 480 nm, 0.01% Triton; series mostly up to 114 µM; further: nearly all actives have a fitted effect of over 25% in size
How it was run: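 AmpC (5.3 nM in the dispensed reagent) in 20 mM phosphate pH 7.0 with 0.01% (detergent screen) or 0.0001% Triton X-100 was preincubated with compounds for 15 min at room temperature. Nitrocefin was then added from an 800 uM solution, and hydrolysis was followed at 480 nm.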
Potency means the concentration at half of the fitted maximal effect; tags describe the fitted curve by direction and shape.

Sequence of UniProt P00811 (P00811 whole entry, looked up): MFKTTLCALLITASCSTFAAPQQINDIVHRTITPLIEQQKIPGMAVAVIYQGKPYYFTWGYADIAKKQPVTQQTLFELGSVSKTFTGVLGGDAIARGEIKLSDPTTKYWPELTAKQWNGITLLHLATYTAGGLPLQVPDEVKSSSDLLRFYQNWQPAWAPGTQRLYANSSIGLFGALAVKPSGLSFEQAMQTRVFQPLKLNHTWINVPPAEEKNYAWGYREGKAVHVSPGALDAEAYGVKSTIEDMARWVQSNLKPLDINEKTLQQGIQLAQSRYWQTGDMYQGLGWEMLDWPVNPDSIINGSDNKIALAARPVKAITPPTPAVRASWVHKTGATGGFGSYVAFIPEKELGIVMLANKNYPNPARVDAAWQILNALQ

Row | SMILES | Potency
1 | CC(C)CCNC(=O)c1ccc2c(SCC(=O)O)c3c(nc2c1)CCCC3 | inconclusive [inhibitor, full curve, poor fit]
2 | Cc1c(C(=O)NC(C)CN2CCCCC2)oc2ccccc12 (stereo unspecified) | inconclusive [inhibitor, full curve, poor fit]
3 | S=C1NC(c2ccccc2)N2C(=S)NC(c3ccccc3)N12 (stereo unspecified) | inconclusive [inhibitor, full curve, poor fit]
4 | Cc1ccc(CCNC(=O)c2ccc3nc4ccc(Cl)cc4c(=O)n3c2)cc1 | inconclusive [inhibitor, partial curve, poor fit]
5 | COc1cccc2c(=O)c3c(cnn3C)n(C)c12 | inconclusive [inhibitor, full curve]
6 | CCc1cc2c(SCC(=O)NC(=O)c3cccn3C)ncnc2s1 | inconclusive [inhibitor, single point]
7 | CSc1nsc(/C=C/Nc2cccc(Cl)c2)c1C#N | inconclusive [inhibitor, single point]
8 | CC(C)OC(=O)c1ccc2nc3ccccc3nc2c1 | inactive
9 | CCCC(=O)Nc1ccc2c(c1)nc1n2CCOC1 | inconclusive [inhibitor, full curve, poor fit]
10 | NS(=O)(=O)c1cc(C(=O)OCC(=O)N2CCOCC2)ccc1Cl | inconclusive [inhibitor, full curve, poor fit]
11 | O=C(Nc1ccccc1Cl)Nc1cccc2cccnc12 | inconclusive [inhibitor, full curve]
12 | COc1ccc(-n2ncc3c(NCCN4CCOCC4)ncnc32)cc1 | inconclusive [inhibitor, full curve, poor fit]
13 | O=C(CSc1nnc(-c2cccc(F)c2)c(-c2cccc(F)c2)n1)NC1CCCCC1 | inactive
14 | CNC(=O)CN(c1cccc2ccccc12)S(C)(=O)=O | inconclusive [inhibitor, full curve, poor fit]
15 | Cc1ccc(N2CCN(S(=O)(=O)c3ccc(Cl)c4ccccc34)CC2)c(C)c1 | inactive
16 | COc1ccc(OC)c(C2C=C(c3ccc(C)c(C)c3)Nc3nnnn32)c1 (stereo unspecified) | inconclusive [inhibitor, full curve, poor fit]
17 | C[C@@H]1CC[C@H]2C(=O)N3[C@@H](CC[C@@H](C)[C@@H]3c3ccc(Br)cc3)C(=O)N2[C@H]1c1ccc(Br)cc1 | inconclusive [inhibitor, partial curve, poor fit]
18 | O=C(NC1CCCC1)C(c1ccc(Cl)cc1)N1CCc2ccccc21 (stereo unspecified) | inconclusive [inhibitor, full curve]
19 | Cc1cccc(C(=O)NNC(=O)c2cc3cc4ccccc4nc3s2)c1 | inconclusive [inhibitor, full curve, poor fit]
20 | Cc1ccc(S(C)(=O)=O)cc1S(=O)(=O)Nc1cccc(Cl)c1 | inconclusive [inhibitor, full curve, poor fit]
21 | CCCC(=O)Nc1c(C(=O)OCC)oc2ccccc12 | inconclusive [inhibitor, partial curve]
22 | O=C1OCC2=C1C(c1ccc(Cl)cc1)CC(=O)N2c1ccc(F)cc1 (stereo unspecified) | inconclusive [inhibitor, full curve, poor fit]

Row | SMILES | Potency
23 | O=C1NN(c2ccccc2)C(=O)C2C3C=CC(C4CC34)C12 (stereo unspecified) | inconclusive [inhibitor, full curve]
24 | COc1ccc(C(=O)Nn2cnc3scc(-c4cccs4)c3c2=O)c(O)c1 | inactive
25 | C=CCSc1nc2nc(C)cc(C)n2n1 | inconclusive [inhibitor, single point]
26 | CCc1ccccc1NC(=O)c1ccc2c(c1)nnn2C1CCCC1 | inactive
27 | Cc1ccc(CNC(=O)Cc2ccc(NC(=O)N3CCSc4ncccc43)cc2)cc1 | inactive
28 | O=C1CCc2cc(S(=O)(=O)NCCc3ccccc3)cc3c2N1CC3 | inconclusive [inhibitor, full curve]
29 | C=CCNC(=S)NS(=O)(=O)c1cccs1 | inconclusive [inhibitor, full curve, poor fit]
30 | COc1cc(-c2noc(C3CCCN(C(=O)c4ccccc4)C3)n2)cc(OC)c1OC (stereo unspecified) | inconclusive [inhibitor, full curve, poor fit]
31 | CC1Sc2ccc(C(=O)NCc3ccccn3)cc2NC1=O (stereo unspecified) | inactive
32 | N#Cc1ccc(-c2ccc(C3Nc4ccccc4C(=O)N3O)o2)cc1 (stereo unspecified) | inactive
33 | Cc1cc(Br)ccc1NC(=O)CCN1C(=O)c2ccncc2C1=O | inconclusive [inhibitor, partial curve, poor fit]
34 | CN1CCN(c2ccc(NC(=O)c3ccc(Br)o3)cc2)CC1 | inactive
35 | O=[N+]([O-])c1ccc(S(=O)(=O)NCC(c2cccnc2)N2CCc3ccccc32)cc1 (stereo unspecified) | inconclusive [inhibitor, full curve, poor fit]
36 | CSc1nc2sc3c(c2c(=O)n1Cc1ccccc1)CCC(C(C)(C)C)C3 (stereo unspecified) | inactive
37 | CC(=O)c1ccc(NC(=S)N2C(C)CCCC2C)cc1 (stereo unspecified) | inactive
38 | CCOC(=O)c1cc2occc2n1CC(=O)NC1CCC(C)CC1 (stereo unspecified) | inconclusive [inhibitor, partial curve, poor fit]
39 | Cc1ccc(S(=O)(=O)NCCC(=O)N2CC(C)OC(C)C2)cc1C (stereo unspecified) | inconclusive [inhibitor, partial curve, poor fit]
40 | Cc1ccc(Sc2c([N+](=O)[O-])ncn2C)cc1 | inactive
41 | O=C(COC(=O)c1cc(-c2ccccc2)nc2ccccc12)c1ccc(Br)cc1 | inactive
42 | CC(=O)Nc1ccc(SCC(=O)c2cc(C)n(C)c2C)cc1 | inconclusive [inhibitor, full curve, poor fit]
43 | CC(CCc1ccco1)NC(=O)CCc1nnc2ccc(NCc3ccccc3)nn12 (stereo unspecified) | inconclusive [inhibitor, partial curve, poor fit]
44 | COc1ccc(CCNC(=O)CSc2nnc3ccc(-c4cccnc4)nn23)cc1OC | inconclusive [inhibitor, full curve, poor fit]

Row | SMILES | Potency
45 | Cc1nnc2sc(SCC(=O)Nc3ccc(Cl)cc3)nn2c1=O | inactive
46 | N#CCC(=O)Nc1ccc(C(=O)Nc2ccc3c(c2)OCO3)cc1 | inconclusive [inhibitor, partial curve, poor fit]
47 | O=C(NCc1ccco1)/C(=C/c1cccc(C(F)(F)F)c1)c1nc2ccccc2[nH]1 | inconclusive [inhibitor, full curve, poor fit]
48 | N/C(=N\N=C\c1ccc2c(c1)OCO2)c1nonc1N | inconclusive [inhibitor, full curve, poor fit]
49 | COc1ccc(NC(=O)c2sc3nc(N4CCOCC4)c4c(c3c2N)CC(C)(C)OC4)cc1 | inconclusive [inhibitor, full curve]
50 | NC1=NC(=O)CC(C(=O)NCCc2ccccc2)S1 (stereo unspecified) | inconclusive [inhibitor, partial curve, poor fit]
51 | CCOC(=O)c1ccc(NC(=O)N2C3CCCC2CC(NC(C)=O)C3)cc1 (stereo unspecified) | inconclusive [inhibitor, full curve, poor fit]
52 | CCN(CC)CCn1c(NCc2ccco2)nc2ccccc21 | inconclusive [inhibitor, partial curve]
53 | Cc1ccc(NC(=O)C(C)OC(=O)Cc2c[nH]c3ccccc23)cc1 (stereo unspecified) | inconclusive [inhibitor, full curve]
54 | C=CCn1c(SCC(=O)NCC2CCCO2)nc2scc(-c3ccco3)c2c1=O (stereo unspecified) | inconclusive [inhibitor, full curve, poor fit]
55 | Cc1c(C(=O)NCc2cccc(Cl)c2)sc2nc3n(c(=O)c12)CCC3 | inactive
56 | Cc1ccc(CNS(=O)(=O)c2cc3[nH]c(=O)c(=O)[nH]c3cc2C)cc1 | inactive
57 | CCN1C(=NCc2cccc(Cl)c2)N[C@@H](c2cccc(F)c2)C(C(=O)OC)=C1C | inconclusive [inhibitor, partial curve, poor fit]
58 | Cc1c(-c2ccccc2)oc2c(C(=O)N3CCN(c4ccc([N+](=O)[O-])cc4)CC3)cccc2c1=O | inconclusive [inhibitor, partial curve, poor fit]
59 | N#CC1(NC(=O)COc2cccnc2[N+](=O)[O-])CCCCC1 | inconclusive [inhibitor, full curve]
60 | CCOc1ccccc1NC(=O)CCS(=O)(=O)c1cccs1 | inconclusive [inhibitor, full curve, poor fit]
61 | O=C(O)CC/C(=N\Nc1ccc(S(=O)(=O)N2CCCC2)cc1[N+](=O)[O-])c1cccs1 | inconclusive [inhibitor, single point]
62 | COc1cc(NC(=O)CN2CCN(c3ccccc3O)CC2)c(C)cc1[N+](=O)[O-] | inconclusive [inhibitor, full curve, poor fit]
63 | COc1cc(C(=O)NCCCn2ccnc2)cc(OC)c1OC | inconclusive [inhibitor, single point]
64 | c1ccc(-n2nnc3ccccc32)cc1 | inconclusive [inhibitor, partial curve, poor fit]
65 | O=C(/C=C/c1ccccc1Cl)NNC(=O)c1cccs1 | inactive
66 | Cc1ccc(NC(=O)c2cc(S(=O)(=O)N(C)C)ccc2N2CCCC2)cc1S(=O)(=O)N(C)C | inconclusive [inhibitor, full curve]
